The source of these data is PMC6919601, “Identification of Plasmodium dipeptidyl aminopeptidase allosteric inhibitors by high throughput screening” (PLoS ONE, 2019).

Each structure is given as a SMILES string. The campaign covered roughly 110,000 compounds. About 230 (0.21%) showed an effect of 50% or more. This is one part of the list.
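Note: 30 min substrate incubation versus DMSO and 10 µM JCP410 controls.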

Sequence of DPAP1 (Q8IIJ9 whole entry, looked up): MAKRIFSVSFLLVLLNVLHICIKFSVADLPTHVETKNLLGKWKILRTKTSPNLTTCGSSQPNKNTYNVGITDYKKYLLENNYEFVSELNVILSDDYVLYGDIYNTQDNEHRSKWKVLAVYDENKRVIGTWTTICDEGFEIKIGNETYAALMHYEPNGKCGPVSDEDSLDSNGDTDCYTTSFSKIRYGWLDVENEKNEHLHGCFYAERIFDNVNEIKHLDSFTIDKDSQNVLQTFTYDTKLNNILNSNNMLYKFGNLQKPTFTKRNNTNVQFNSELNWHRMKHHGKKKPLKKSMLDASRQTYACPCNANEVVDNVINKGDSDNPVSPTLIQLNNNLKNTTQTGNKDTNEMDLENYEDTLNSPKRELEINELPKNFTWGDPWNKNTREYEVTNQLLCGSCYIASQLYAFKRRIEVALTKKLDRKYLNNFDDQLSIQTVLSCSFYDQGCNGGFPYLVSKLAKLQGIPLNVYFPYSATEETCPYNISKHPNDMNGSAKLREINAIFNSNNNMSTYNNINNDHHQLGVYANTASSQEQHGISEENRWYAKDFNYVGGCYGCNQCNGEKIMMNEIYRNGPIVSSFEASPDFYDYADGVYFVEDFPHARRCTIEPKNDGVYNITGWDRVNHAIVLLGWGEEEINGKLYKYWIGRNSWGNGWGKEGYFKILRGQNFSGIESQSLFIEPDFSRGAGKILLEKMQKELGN

This assay has as its target DPAP1 (Plasmodium falciparum, UniProt Q8IIJ9). The assay is described as follows: primary screen, percent inhibition; read by cleavage of a fluorogenic dipeptide substrate; higher = more effect of the substance. Details: species or system P. falciparum D10 trophozoite lysates; single well.
Regarding `Cc1ccc(-n2ccc(N)c(C#N)c2=O)cc1`, the “% Inhibition @ 10 uM” value is -3.16%.
For the compound `O=C(Nc1c2c(nn1-c1ccc(Cl)cc1)CS(=O)(=O)C2)c1cccc(C(F)(F)F)c1`, the “% Inhibition @ 10 uM” value was found to be 7.39%.
In the case of `CCCn1nnnc1NCc1ccc(F)cc1` it was 3.38%; in that of `COCCNC(=O)c1ccc(CS(=O)(=O)Cc2ccccc2C)o1`, 3.24%.
The figure for `COc1ccc(S(=O)(=O)NCCC(=O)NCc2cccs2)cc1` is -2.26%; for `COc1ccc(CN2CCN(c3ccccc3)CC2)cc1OC` it is -1.77%; for `CC(C)C(NC(=O)CCN1C(=O)c2ccccc2C1=O)c1ccccc1` (centres unmarked) it is 2.24%.
In the case of `Cc1ccc(Cn2c(=O)c3c(ncn3C)n(C)c2=O)cc1`, the “% Inhibition @ 10 uM” value came out at 7.98%.
On to `O=C(Cn1cnc2onc(-c3ccc(F)cc3)c2c1=O)N1CCN(c2ccccn2)CC1`, for which the “% Inhibition @ 10 uM” value is -4.96%.
In the case of `CCc1ccc(C2C(C#N)=C(N)N(c3cccnc3)C3=C2C(=O)CCC3)s1` (centres unmarked) it was 3.79%.
As to `CC(C)c1ccccc1OCC(=O)Nc1ccc(S(=O)(=O)N2CCCCC2)cc1`, the “% Inhibition @ 10 uM” value is on record as 0.913%.
Take `CC1CCCCC1N(C)C1CCN(CCCNC(=O)/C=C/c2cccs2)CC1` (centres unmarked): the “% Inhibition @ 10 uM” value is recorded as -4.71%.
The figure for `Cc1cc(OCc2nc3ccccc3[nH]2)ccc1C(C)C` is -6.82%; for `CCCOc1ccc(C(=O)N(Cc2ccccc2)c2ccccn2)cc1` it is -4.95%.
Take `Nc1nc2c(s1)C(=O)c1ccccc1-2`: the “% Inhibition @ 10 uM” value was -1.8%.
With `O=C(CN1C(=O)c2cccc3cccc(c23)C1=O)NCCCO`, the “% Inhibition @ 10 uM” value is on record as -0.949%.
In the case of `CCOC(=O)c1c(C)[nH]c(C)c1S(=O)(=O)N1CCOCC1` it was -5%; in that of `C=CCn1c2ccccc2c2nnc(SCC(=O)Nc3ccccn3)nc21`, -0.597%.
As for `COc1ccc(C(=O)Nc2ccccc2Cl)cc1OC`, the “% Inhibition @ 10 uM” value is -3.13%.
In the case of `CC(=O)c1c(C)[nH]c(C(=O)NCc2ccc(C)cc2)c1C` it was -0.499%.
As for `C=Cc1ccc(Cn2c(C(=O)OC)c(NC(C)=O)c3c(C)c(C)sc32)cc1`, the “% Inhibition @ 10 uM” value is -3.34%.
As for `c1cnc2[nH]c(Nc3nc4ccccc4s3)nc2c1`, the “% Inhibition @ 10 uM” value is -4.15%.
The figure for `CC(C)CNS(=O)(=O)c1ccc(CCC(=O)N2CCN(c3ccccc3F)CC2)cc1` is 2.01%.
In the case of `CCc1ccc(C2=NN(CCC(=O)NCCC3=CCCCC3)C(=O)CC2)cc1` it was -8.34%.
In the case of `COc1ccc(C2CC(c3ccc(Cl)cc3)=NN2c2nc(-c3cc(C)ccc3C)cs2)cc1OC` (centres unmarked) it was 1.08%; in that of `Cc1ccc(-n2c(C)cc(C)nc2=O)cc1`, 1.21%.
Turning to `Cc1ccc(C)c(NC(=O)c2cncc(Br)c2)c1`, the “% Inhibition @ 10 uM” value was -6.02%.
The figure for `CCOC(=O)c1c(S(=O)(=O)NCc2ccc(C)o2)c(C)n(C)c1C` is -3%; for `Cc1cc(C)nc(Sc2ccc3nnc(C(F)(F)C(F)(F)C(F)(F)F)n3n2)n1` it is 5.55%.
The figure for `Cc1cc(C(=O)Nc2ncc(Br)cc2Br)ccc1[N+](=O)[O-]` is 0.912%.
The figure for `CCOc1ccccc1/C=C1/NC(=O)NC1=O` is 5.37%; for `CCOC(=O)c1sc(N2C(=O)c3oc4ccccc4c(=O)c3C2c2cccc(Cl)c2)nc1C` (centres unmarked) it is -8.7%; for `Cc1ccc(-c2cc(C(=O)N3CCN(C(=O)c4ccco4)CC3)[nH]n2)c(C)c1` it is 2.62%.
On to `Cc1cc(C(F)F)n2nc(C(=O)Nc3ccc(S(=O)(=O)N4CCCC4)cc3)nc2n1`, for which the “% Inhibition @ 10 uM” value is -1.88%.
The figure for `CCOc1ccc(CNS(=O)(=O)c2cc(-c3onc(C)c3C)ccc2C)cc1OC` is 3.53%.
The figure for `Cc1ccc(C(=O)N/C(=C\c2cccs2)C(=O)Nc2ccccc2)cc1C` is -6.36%.
In the case of `CCOc1ccccc1C(=O)Nc1ccccn1` it was -7.08%.
Consider `CC(c1ccccc1)N1C(=O)c2ccc(C(=O)NCc3ccco3)cc2C1=O` (centres unmarked), for which the “% Inhibition @ 10 uM” value was -0.132%.
For the compound `CC(C)OCCCNC(=O)C1CCN(C(=O)c2cc3sccc3n2C)CC1`, the “% Inhibition @ 10 uM” value is 3.4%.
The figure for `CCN(CC)CCN(C)Cc1cccc(F)c1` is 3.44%; for `COc1ccccc1CNC(=O)c1ccc2nc3c(cc2c1)CCS3` it is 3.04%; for `OC1CCCN(C2CCN(CCc3ccccc3)CC2)C1` (centres unmarked) it is -3.6%.
In the case of `COc1ccc(C(=O)C2=C(O)C(=O)N(Cc3cccnc3)C2c2ccc(C(C)C)cc2)cc1` (centres unmarked), the “% Inhibition @ 10 uM” value came to 3.8%.
The figure for `CCC(=O)Nc1nc(C)c(-c2csc(Nc3ccc(N(C)C)cc3)n2)s1` is 0.214%; for `O=C(c1ccccc1)N1CCN(Cc2ccccc2)CC1` it is -4.3%.
The figure for `CC(/C=C1\N=C(c2cccc(F)c2)OC1=O)=C\c1ccccc1` is 7.62%; for `CCOC(=O)c1cccnc1SCC(=O)NC(C)CC` (centres unmarked) it is -4.97%.
In the case of `CC(C)c1ccc(N2CC(C(=O)Nc3ccccc3Br)CC2=O)cc1` (centres unmarked) it was -4.71%; in that of `CC1CCC(N(C)CCc2ccccn2)C1` (centres unmarked), 3.24%; in that of `COc1ccc(OCCC(=O)c2ccccc2)cc1`, -2.32%.
On to `Cc1c(/C=C2\SC(=O)N(CC(=O)Nc3ccc4c(c3)OCO4)C2=O)c2ccccc2n1C`, for which the “% Inhibition @ 10 uM” value was determined as 1.35%.
In the case of `Cc1nnc(N2CCCC(C(=O)Nc3ccc(Cl)cn3)C2)c2nn(-c3ccccc3)c(C)c12` (centres unmarked) it was 0.535%; in that of `CCCCSc1nnc(-c2ccccc2N)c(O)n1`, -1.99%; in that of `CCOc1ccccc1C(=O)NCc1ccc(Cl)c(Cl)c1`, 0.163%.
With `C=C(C)[C@@H]1CC=C(CN2CCCC2CO)CC1` (some centres unmarked), the “% Inhibition @ 10 uM” value is reported as -1.75%.
For `CCNC(=O)N(CC)Cc1nc(-c2ccc(C)cc2)no1`, the “% Inhibition @ 10 uM” value is given as 0.00706%.
Take `O=C(CC1NC(=S)NC1=O)c1ccc2c(c1)CCCC2` (centres unmarked): the “% Inhibition @ 10 uM” value is reported as -1.05%.
In the case of `CCOc1ccc(C2C3=C(O)CC(C)(C)CC3=Nc3nc(SC)nn32)c(OC)c1` (centres unmarked), the “% Inhibition @ 10 uM” value is listed as -5.19%.
In the case of `CCCOc1ccc(C2C(C#N)=C(N)OC3=C2C(=O)CC(C)(C)C3)cc1OCC` (centres unmarked) it was 0.746%; in that of `Cc1c(OCc2ccccc2)ccc2c(C(F)(F)F)cc(=O)oc12`, 2.89%.
As for `CCOCCCNC(=O)CN1CCN(Cc2ccc(Cl)cc2)C1=O`, the “% Inhibition @ 10 uM” value is on record as 1.49%.
For the compound `C#CCOc1ccc(C2C(C#N)=C(N)Oc3n[nH]c(C)c32)cc1` (centres unmarked), the “% Inhibition @ 10 uM” value was -6.58%.
In the case of `COc1ccc(C(=O)N[C@@H](CC(C)C)C(=O)NCC#N)cc1`, the “% Inhibition @ 10 uM” value is recorded as -2.35%.
With `COc1cc(OC)c2c(C3N=C(N)Nc4nc5ccccc5n43)cn(Cc3ccccc3)c2c1` (centres unmarked), the “% Inhibition @ 10 uM” value is listed as 5.38%.
Take `COCCn1c(-c2ccc(C)cc2)cc(C(=O)O)c1C`: the “% Inhibition @ 10 uM” value is reported as -3.33%.
The figure for `Cc1nc2cc(-c3ccccc3)nn2c(C)c1CCC(=O)NC(C)c1ccccc1` (centres unmarked) is -4.1%; for `N#CC1=C(N)Oc2cc(O)ccc2C1c1cccnc1` (centres unmarked) it is 0.0345%.
In the case of `O=C1CC(N2CCCCC2)C(=O)N1c1ccc(N2C(=O)CC(N3CCCCC3)C2=O)cc1` (centres unmarked) it was -0.46%; in that of `O=C(CN1CCN(Cc2ccc(Cl)cc2)C1=O)NCC1COc2ccccc2O1` (centres unmarked), -2.12%; in that of `Cc1c(Cl)cccc1N1C(=O)CC(C2CCCO2)C1=O` (centres unmarked), -3.09%.
As for `O=C(NC12CC3CC(CC(C3)C1)C2)c1c(O)nc2c(c1O)CCCC2`, the “% Inhibition @ 10 uM” value turned out to be 5.85%.
The figure for `COc1ccccc1CNC(=O)c1cc2c(s1)CS(=O)(=O)C2` is -1.69%; for `O=S(=O)(O)c1nnc2sc3ccccc3n12` it is 2.9%.
`OCCNc1nc(N2CCOCC2)nc(N2CCOCC2)n1`: the “% Inhibition @ 10 uM” value was 2.58%.
On to `CCOc1ccc2nc(SC3CC(=O)N(c4ccc(OC)cc4)C3=O)nc(C)c2c1` (centres unmarked), for which the “% Inhibition @ 10 uM” value is reported as -0.68%.
The figure for `COc1ccc(N2CCN(Cc3ccc(O)cc3)CC2)cc1` is 2.23%; for `Cc1cccc(NC(=O)c2ccco2)c1C` it is -4.12%.
In the case of `CCOc1ccc(CCNC(=O)CS(=O)(=O)Cc2nc(-c3ccc(C)cc3)oc2C)cc1`, the “% Inhibition @ 10 uM” value is -0.138%.
Turning to `CC(C)CCNC(=O)C1CCN(S(=O)(=O)N2CCCCC2)CC1`, the “% Inhibition @ 10 uM” value is 0.387%.
`CC(C)=CCC[C@H](C)CCN(CC(C)O)CC(C)O` (some centres unmarked): the “% Inhibition @ 10 uM” value is reported as -3.72%.
As for `CCn1c(C(=O)O)c(CNCc2cccs2)c2ccc(C)cc21`, the “% Inhibition @ 10 uM” value is recorded as -0.118%.
The figure for `CC(=O)c1ccc(NC(=O)CSc2nc(N)cc(N)n2)cc1` is 3.36%; for `CC(=O)Nc1ccc(NC(=O)c2cccs2)cc1` it is -0.68%.
`C=CCn1c(C(C)NC(=O)COC)nc2ccccc21` (centres unmarked): the “% Inhibition @ 10 uM” value is recorded as -3.48%.
For `O=C1NC(c2ccccc2)=N/C1=C/c1ccco1`, the “% Inhibition @ 10 uM” value turned out to be 12.2%.
The figure for `C=CCOc1ccc(/C=C2/SC(=O)N(C(C)C)C2=O)cc1` is -1.6%.
The figure for `Cc1nc(CC(=O)Nc2nc(-c3ccc(F)cc3)c(C)s2)cs1` is -1.11%; for `CCc1nn(CC(=O)NCc2ccc(Cl)cc2)c(=O)c2cc3sccc3n12` it is 3.4%.
In the case of `O=C1NC(/C=C/c2ccc([N+](=O)[O-])cc2)Nc2sc3c(c21)CCCC3` (centres unmarked) it was -4.23%; in that of `O=C(CCc1ccccc1)N1CCN(c2cccc(Cl)c2)CC1`, -4.04%.
In the case of `Cc1csc(NC(=O)C(Cc2ccccc2)N2Cc3ccccc3C2=O)n1` (centres unmarked), the “% Inhibition @ 10 uM” value is 6.04%.
For the compound `Cc1ccc(CCNC(=O)c2cc(S(=O)(=O)N3CCOCC3)cn2C)cc1`, the “% Inhibition @ 10 uM” value is given as -1.26%.
The figure for `CCC[C@H](NC(=O)C1(NC(=O)c2cnccn2)CCCCC1)C(=O)c1nc2ccccc2o1` is -4.72%; for `O=C1C2ON(c3ccccc3)C(c3ccc(F)cc3)C2C(=O)N1c1ccccc1` (centres unmarked) it is -4.58%.
Turning to `Cc1ccc(C2=NN(CCC(=O)N3CCC4(CC3)OCCO4)C(=O)CC2)cc1`, the “% Inhibition @ 10 uM” value is -5.43%.
The figure for `Cc1ccc(CS(=O)(=O)CCC(=O)NCCN2CCC(Cc3ccccc3)CC2)cc1` is -3.58%.
In the case of `O=C(NCCCN1CCc2ccccc2C1)C1CCN(c2nnc(-n3cccc3)s2)CC1` it was -2.25%; in that of `Cc1c(NC(=O)Cn2cnc3c(=O)n(C)c(=O)n(C)c32)cccc1-c1nc2cc(Cl)ccc2o1`, 0.749%; in that of `Nc1nnc(-c2ccc(Cn3c(-c4nonc4N)nc4ccccc43)cc2)s1`, -2.88%.
As to `Cc1nc2ncnn2c(C)c1CCC(=O)NC(C)C12CC3CC(CC(C3)C1)C2` (centres unmarked), the “% Inhibition @ 10 uM” value is listed as -2.25%.
In the case of `Oc1nc(S)nc(O)c1Cc1ccccc1` it was -3.64%.
